Some of the results follow. Many values rest on one well or one pass, so single values are uncertain.
Assays:
Assay in all cases: cell count relative to DMSO control; melanoma cells; higher = more viable cells
Conditions in all cases: library dose: standard library concentration; 72 h
[1] = test system: SkMel28
[2] = test system: SkMel2
[3] = test system: SkMel30
[4] = test system: SkMel5
[5] = test system: UACC257
[6] = test system: UACC62
[7] = test system: WM115
[8] = test system: WM1716
[9] = test system: WM1745
[10] = test system: WM3526
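Note: cells treated in 1,536-well plates, then fixed and DAPI-stained, with nuclei counted from automated high-throughput microscope images.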

Row | Compound | cell count [1] [%] | cell count [2] [%] | cell count [3] [%] | cell count [4] [%] | cell count [5] [%] | cell count [6] [%] | cell count [7] [%] | cell count [8] [%] | cell count [9] [%] | cell count [10] [%]
1 | Clc1ccc(Nc2nnc(Cc3ccncc3)c3ccccc23)cc1 [vatalanib] + COc1ccc(Cl)c(Nc2nc3ccccc3nc2NS(=O)(=O)c2cccc(NC(=O)C(C)(C)N)c2)c1 [XL147] (first compound 10 µM, partner dose 4 µM) | 49.3 | 66 | 71.6 | 61.4 | 81.9 | 60.7 | 75.5 | 68.8 | 50 | 65
2 | Clc1ccc(Nc2nnc(Cc3ccncc3)c3ccccc23)cc1 [vatalanib] + Nc1cccc2c1CN(C1CCC(=O)NC1=O)C2=O [lenalidomide] (first compound 10 µM, partner dose 5 µM) | 85.3 | 88 | 94.1 | 76.5 | 85.8 | 58.4 | 104 | 112 | 62.7 | 81.4
3 | Nc1cccc2c1CN(C1CCC(=O)NC1=O)C2=O (stereo not given) [lenalidomide] + Oc1nc(-c2ccc(C(F)(F)F)cc2)nc2c1CSCC2 [XAV939] (first compound 5 µM, partner dose 10 µM) | 47.5 | 68.5 | 89.2 | 62.8 | 90.4 | 90 | 92.4 | 84.9 | 63.9 | 98.3
4 | OCc1c[nH]c2ccccc12 [Indole-3-carbinol] + CC(C)(C)c1cnc(CSc2cnc(NC(=O)C3CCNCC3)s2)o1 [SNS-032] (first compound 4 µM, partner dose 0.05 µM) | 49.1 | 71.4 | 88.6 | 69.7 | 98.2 | 81.6 | 79.5 | 70.3 | 75.3 | 107
5 | O=C(CCCCCCC(=O)Nc1ccccc1)NO [vorinostat] + CC1(C)NC(=O)N(c2ccc([N+](=O)[O-])c(C(F)(F)F)c2)C1=O [nilutamide] (first compound 0.4 µM, partner dose 5 µM) | 80.4 | 92.1 | 106 | 59 | 62.7 | 75.9 | 85.7 | 93.2 | 101 | 84.6
6 | Nc1cccc2c1CN(C1CCC(=O)NC1=O)C2=O (stereo not given) [lenalidomide] + O=C1NC(=O)/C(=C/c2ccc(-c3ccc(F)cc3O)o2)S1 [AS252424] (first compound 5 µM, partner dose 5 µM) | 99 | 83.3 | 74.8 | 62.5 | 100 | 86.7 | 87.2 | 93.4 | 107 | 81.3
7 | C#Cc1cccc(Nc2ncnc3cc(OCCOC)c(OCCOC)cc23)c1 [erlotinib] + Cn1cc(/C=C2\C(=O)Nc3cccnc32)c2ccccc21 [GW441756] (first compound 4 µM, partner dose 2 µM) | 63.4 | 83.4 | 61.3 | 66.4 | 86.4 | 48.9 | 76.2 | 114 | 60.9 | 69.2
8 | Cn1c(Nc2ccc(C(F)(F)F)cc2)nc2cc(Oc3ccnc(-c4ncc(C(F)(F)F)[nH]4)c3)ccc21 + C[C@@H]1CCN(C(=O)CC#N)C[C@@H]1N(C)c1ncnc2[nH]ccc12 [CP690550] (first compound 0.4 µM, partner dose 5 µM) | 54.6 | 54.3 | 85.2 | 48.4 | 77.8 | 41 | 36 | 73.5 | 67.8 | 46.1
9 | Cn1c(Nc2ccc(C(F)(F)F)cc2)nc2cc(Oc3ccnc(-c4ncc(C(F)(F)F)[nH]4)c3)ccc21 + O=C(Nc1ccccc1)c1cc([N+](=O)[O-])ccc1Cl [GW9662] (first compound 0.4 µM, partner dose 10 µM) | 23.8 | 51.2 | 71.5 | 33.7 | 82.6 | 48.7 | 32.7 | 70.1 | 55.6 | 38.8
10 | Nc1cccc2c1CN(C1CCC(=O)NC1=O)C2=O (stereo not given) [lenalidomide] + NCC(=O)Nc1ccc(-n2nc(C(F)(F)F)cc2-c2ccc3c(ccc4ccccc43)c2)cc1 [OSU03012] (first compound 5 µM, partner dose 5 µM) | 24.1 | 37 | 39.5 | 55.4 | 86.6 | 69.5 | 81.8 | 82.5 | 52.5 | 54.5
11 | Clc1ccc(Nc2nnc(Cc3ccncc3)c3ccccc23)cc1 [vatalanib] + Cn1cncc1[C@@](N)(c1ccc(Cl)cc1)c1ccc2c(c1)c(-c1cccc(Cl)c1)cc(=O)n2C [tipifarnib] (first compound 10 µM, partner dose 0.05 µM) | 59.5 | 58.2 | 107 | 49.1 | 65.9 | 62.8 | 50.1 | 49.1 | 44 | 64.7
12 | Cn1c(Nc2ccc(C(F)(F)F)cc2)nc2cc(Oc3ccnc(-c4ncc(C(F)(F)F)[nH]4)c3)ccc21 + Cc1ccc(NC(=O)c2cccc(N(C)C)c2)cc1NC(=O)c1ccc(O)cc1 [ZM336372] (first compound 0.4 µM, partner dose 10 µM) | 39.2 | 56.4 | 66.6 | 36.5 | 71.5 | 46.5 | 29.5 | 74.6 | 54.4 | 43.2
13 | Cn1c(Nc2ccc(C(F)(F)F)cc2)nc2cc(Oc3ccnc(-c4ncc(C(F)(F)F)[nH]4)c3)ccc21 + CC1(C)NC(=O)N(c2ccc([N+](=O)[O-])c(C(F)(F)F)c2)C1=O [nilutamide] (first compound 0.4 µM, partner dose 5 µM) | 35.8 | 50.2 | 64.6 | 38.7 | 79.9 | 50.6 | 27.1 | 59.7 | 42 | 52.4
14 | C#Cc1cccc(Nc2ncnc3cc(OCCOC)c(OCCOC)cc23)c1 [erlotinib] + Cn1c(Nc2ccc(C(F)(F)F)cc2)nc2cc(Oc3ccnc(-c4ncc(C(F)(F)F)[nH]4)c3)ccc21 [CHIR265] (first compound 4 µM, partner dose 0.4 µM) | 39.1 | 48 | 68.1 | 33.7 | 75.6 | 24.3 | 35 | 70.5 | 52.1 | 36.5
15 | C#Cc1cccc(Nc2ncnc3cc(OCCOC)c(OCCOC)cc23)c1 [erlotinib] + Cc1cc([N+](=O)[O-])ccc1NS(=O)(=O)c1cc(Cl)ccc1Cl [FH535] (first compound 4 µM, partner dose 5 µM) | 58.3 | 87.7 | 70.4 | 43.1 | 74.6 | 75 | 81.3 | 83 | 62.4 | 63.5
16 | C#Cc1cccc(Nc2ncnc3cc(OCCOC)c(OCCOC)cc23)c1 [erlotinib] + COCC[n+]1c2c(n(Cc3cnccn3)c1C)C(=O)c1ccccc1C2=O [YM155] (first compound 4 µM, partner dose 0.002 µM) | 21.6 | 15.7 | 57.2 | 21.8 | 25.5 | 30.3 | 45.9 | 43.3 | 41.3 | 23.4
17 | COCC[n+]1c2c(n(Cc3cnccn3)c1C)C(=O)c1ccccc1C2=O + O=C(O)c1ccc(-c2c[nH]c3ncc(-c4ccccc4)cc23)cc1C1CCCC1 [GSK650394] (first compound 0.002 µM, partner dose 0.8 µM) | 69.3 | 49.8 | 83.5 | 50.7 | 25 | 71 | 73.8 | 84.7 | 115 | 68.4
18 | C#Cc1cccc(Nc2ncnc3cc(OCCOC)c(OCCOC)cc23)c1 [erlotinib] + COc1ccc(-c2ccc3c(N4CCOCC4)nc(N4C[C@@H](C)O[C@@H](C)C4)nc3n2)cc1CO [KU0063794] (first compound 4 µM, partner dose 0.1 µM) | 56.4 | 86.5 | 83.4 | 77.3 | 111 | 103 | 88.1 | 95.7 | 60.3 | 77.3
19 | C#Cc1cccc(Nc2ncnc3cc(OCCOC)c(OCCOC)cc23)c1 [erlotinib] + C[C@]1(c2nc3c(C(N)=O)cccc3[nH]2)CCCN1 [Veliparib] (first compound 4 µM, partner dose 7 µM) | 45.5 | 88.6 | 47.3 | 43.7 | 84.2 | 29.7 | 68.1 | 74.3 | 43.3 | 63.2
20 | Nc1cccc2c1CN(C1CCC(=O)NC1=O)C2=O (stereo not given) [lenalidomide] + CCN(CC)CCCCNc1ncc2cc(-c3cc(OC)cc(OC)c3)c(NC(=O)NC(C)(C)C)nc2n1 [PD173074] (first compound 5 µM, partner dose 0.5 µM) | 119 | 104 | 115 | 109 | 105 | 112 | 106 | 99.9 | 98 | 97.6
21 | Nc1cccc2c1CN(C1CCC(=O)NC1=O)C2=O (stereo not given) [lenalidomide] + CN(NC(=O)CC(=O)NN(C)C(=S)c1ccccc1)C(=S)c1ccccc1 [STA4783] (first compound 5 µM, partner dose 0.03 µM) | 26.7 | 73.5 | 90.4 | 45.7 | 101 | 52 | 22.4 | 74.3 | 29.5 | 97.8
22 | Clc1ccc(Nc2nnc(Cc3ccncc3)c3ccccc23)cc1 [vatalanib] + C[C@]1(c2nc3c(C(N)=O)cccc3[nH]2)CCCN1 [Veliparib] (first compound 10 µM, partner dose 7 µM) | 69.9 | 88.4 | 84.2 | 66.5 | 86 | 66.6 | 77.7 | 77.3 | 21.1 | 58.5
23 | OCc1c[nH]c2ccccc12 [Indole-3-carbinol] + Cn1c(Nc2ccc(C(F)(F)F)cc2)nc2cc(Oc3ccnc(-c4ncc(C(F)(F)F)[nH]4)c3)ccc21 [CHIR265] (first compound 4 µM, partner dose 0.4 µM) | 42.4 | 57.2 | 61.1 | 36.8 | 64.3 | 43.2 | 43.7 | 86 | 58.4 | 48.6
24 | C#Cc1cccc(Nc2ncnc3cc(OCCOC)c(OCCOC)cc23)c1 [erlotinib] + N#Cc1c(O)c2c(-c3ccc(-c4ccccc4O)cc3)csc2[nH]c1=O [A769662] (first compound 4 µM, partner dose 10 µM) | 60 | 87.9 | 75.2 | 63.2 | 104 | 106 | 76.1 | 84.8 | 65.4 | 73.4

Source: the supplement of paper PMC4604168 (melanoma cell lines)
